Where two headings read alike, the source gives them in different places. Results are given in words; binding and its absence hold for the method and conditions named. For some assays here: In cells and extracts the contact can be indirect. Some results given as binding are weak or reduced against the parent protein; the word gives no strength. For some assays here: Where a sequence is shown, tags or fusion partners need not be part of it.
B1: StrepII+Flag (SF)-tagged vIRF-2 (protein, UniProt Q2HR71 1-680)
chain: MPRYTESEWLTDFIIDALDSGRFWGVGWLDEQKRIFTVPGRNRRERMPEGFDDFYEAFLEERRRHGLPEIPETETGLGCFGRLLRTANRARQERPFTIYKGKMKLNRWIMTPRPYKGCEGCLVYLTQEPAMKNMLKALFGIYPHDDKHREKALRRSLRKKAQREAARKQAAAVATPTTSSAAEVSSRSQSEDTESSDSENELWVGAQGFVGRDMHSLFFEEPEPSGFGSSGQSSSLLAPDSPRPSTSQVQGPLHVHTPTDLCLPTGGLPSPVIFPHETQGLLAPPAGQSQTPFSPEGPVPSHVSGLDDCLPMVDHIEGCLLDLLSDVGQELPDLGDLGELLCETASPQGPMQSEGGEEGSTESVSVLPATHPLESSAPGASVMGSGQELPDLGDLSELLCETASPQGPMQSEGGEEGSTESVSVLPATHPLESSAPGASVMGSSFQASDNVDDFIDCIPPLCRDDRDVEDQEKADQTFYWYGSDMRPKVLTATQSVAAYLSKKQAIYKVGDKLVPLVVEVYYFGEKVKTHFDLTGGIVICSQVPEASPEHICQTVPPYKCLLPRTAHCSVDANRTLEQTLDRFSMGVVAIGTNMGIFLKGLLEYPAYFVGNASRRRIGKCRPLSHRHEIQQAFDVERHNREPEGSRYASLFLGRRPSPEYDWDHYPVILHIYLAPFYHRD

Sequences of proteins named here, by UniProt entry; tags and fusion partners are left off. Residues count along the entry.
UniProt P29597: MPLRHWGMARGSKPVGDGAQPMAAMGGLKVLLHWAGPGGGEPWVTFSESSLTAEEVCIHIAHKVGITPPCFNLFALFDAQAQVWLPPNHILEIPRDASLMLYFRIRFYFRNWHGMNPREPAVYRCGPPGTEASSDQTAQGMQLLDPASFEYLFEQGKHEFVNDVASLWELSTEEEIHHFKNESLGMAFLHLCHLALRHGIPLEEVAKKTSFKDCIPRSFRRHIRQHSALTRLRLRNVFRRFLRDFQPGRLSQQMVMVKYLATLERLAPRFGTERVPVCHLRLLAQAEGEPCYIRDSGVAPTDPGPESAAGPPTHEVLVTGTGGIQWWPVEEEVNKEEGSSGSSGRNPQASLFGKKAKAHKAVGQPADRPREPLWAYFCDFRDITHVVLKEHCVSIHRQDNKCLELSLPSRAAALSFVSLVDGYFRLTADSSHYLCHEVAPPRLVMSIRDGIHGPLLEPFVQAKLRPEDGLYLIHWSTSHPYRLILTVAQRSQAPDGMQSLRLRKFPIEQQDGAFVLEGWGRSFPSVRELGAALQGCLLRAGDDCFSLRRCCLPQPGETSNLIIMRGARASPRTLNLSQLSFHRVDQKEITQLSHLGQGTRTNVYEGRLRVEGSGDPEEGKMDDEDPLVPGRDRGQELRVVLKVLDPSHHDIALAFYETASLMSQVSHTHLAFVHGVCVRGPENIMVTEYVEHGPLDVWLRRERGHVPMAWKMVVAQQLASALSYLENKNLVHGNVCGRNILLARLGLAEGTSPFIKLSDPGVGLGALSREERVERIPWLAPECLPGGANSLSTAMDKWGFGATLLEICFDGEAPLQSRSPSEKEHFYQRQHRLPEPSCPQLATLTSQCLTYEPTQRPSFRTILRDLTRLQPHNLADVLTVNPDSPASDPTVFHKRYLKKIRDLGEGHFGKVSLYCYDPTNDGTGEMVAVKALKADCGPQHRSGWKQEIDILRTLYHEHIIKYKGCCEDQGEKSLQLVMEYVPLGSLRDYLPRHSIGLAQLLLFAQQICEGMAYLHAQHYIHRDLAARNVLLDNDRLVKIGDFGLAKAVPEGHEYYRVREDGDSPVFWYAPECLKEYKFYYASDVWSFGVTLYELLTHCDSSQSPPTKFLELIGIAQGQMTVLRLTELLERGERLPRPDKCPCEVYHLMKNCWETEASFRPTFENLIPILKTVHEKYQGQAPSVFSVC
UniProt P40763: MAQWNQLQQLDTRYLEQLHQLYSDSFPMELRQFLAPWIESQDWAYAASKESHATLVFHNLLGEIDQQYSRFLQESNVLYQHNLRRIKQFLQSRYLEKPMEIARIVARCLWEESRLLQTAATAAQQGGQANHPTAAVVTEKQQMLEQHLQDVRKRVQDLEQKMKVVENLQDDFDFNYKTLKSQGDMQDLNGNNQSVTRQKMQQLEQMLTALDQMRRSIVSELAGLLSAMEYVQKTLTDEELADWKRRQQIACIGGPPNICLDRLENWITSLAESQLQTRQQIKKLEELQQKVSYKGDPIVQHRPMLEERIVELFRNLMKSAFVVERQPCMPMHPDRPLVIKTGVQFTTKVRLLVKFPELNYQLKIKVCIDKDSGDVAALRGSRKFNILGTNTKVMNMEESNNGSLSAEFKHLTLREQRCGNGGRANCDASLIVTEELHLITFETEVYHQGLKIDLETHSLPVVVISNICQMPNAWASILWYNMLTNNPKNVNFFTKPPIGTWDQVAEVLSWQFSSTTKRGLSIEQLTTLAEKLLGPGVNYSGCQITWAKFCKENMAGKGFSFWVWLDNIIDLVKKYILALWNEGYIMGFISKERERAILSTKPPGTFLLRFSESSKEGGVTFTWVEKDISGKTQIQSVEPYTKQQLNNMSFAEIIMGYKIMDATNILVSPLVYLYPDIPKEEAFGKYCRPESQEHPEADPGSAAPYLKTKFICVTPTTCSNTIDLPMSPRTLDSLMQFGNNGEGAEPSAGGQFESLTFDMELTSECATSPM
UniProt Q93009: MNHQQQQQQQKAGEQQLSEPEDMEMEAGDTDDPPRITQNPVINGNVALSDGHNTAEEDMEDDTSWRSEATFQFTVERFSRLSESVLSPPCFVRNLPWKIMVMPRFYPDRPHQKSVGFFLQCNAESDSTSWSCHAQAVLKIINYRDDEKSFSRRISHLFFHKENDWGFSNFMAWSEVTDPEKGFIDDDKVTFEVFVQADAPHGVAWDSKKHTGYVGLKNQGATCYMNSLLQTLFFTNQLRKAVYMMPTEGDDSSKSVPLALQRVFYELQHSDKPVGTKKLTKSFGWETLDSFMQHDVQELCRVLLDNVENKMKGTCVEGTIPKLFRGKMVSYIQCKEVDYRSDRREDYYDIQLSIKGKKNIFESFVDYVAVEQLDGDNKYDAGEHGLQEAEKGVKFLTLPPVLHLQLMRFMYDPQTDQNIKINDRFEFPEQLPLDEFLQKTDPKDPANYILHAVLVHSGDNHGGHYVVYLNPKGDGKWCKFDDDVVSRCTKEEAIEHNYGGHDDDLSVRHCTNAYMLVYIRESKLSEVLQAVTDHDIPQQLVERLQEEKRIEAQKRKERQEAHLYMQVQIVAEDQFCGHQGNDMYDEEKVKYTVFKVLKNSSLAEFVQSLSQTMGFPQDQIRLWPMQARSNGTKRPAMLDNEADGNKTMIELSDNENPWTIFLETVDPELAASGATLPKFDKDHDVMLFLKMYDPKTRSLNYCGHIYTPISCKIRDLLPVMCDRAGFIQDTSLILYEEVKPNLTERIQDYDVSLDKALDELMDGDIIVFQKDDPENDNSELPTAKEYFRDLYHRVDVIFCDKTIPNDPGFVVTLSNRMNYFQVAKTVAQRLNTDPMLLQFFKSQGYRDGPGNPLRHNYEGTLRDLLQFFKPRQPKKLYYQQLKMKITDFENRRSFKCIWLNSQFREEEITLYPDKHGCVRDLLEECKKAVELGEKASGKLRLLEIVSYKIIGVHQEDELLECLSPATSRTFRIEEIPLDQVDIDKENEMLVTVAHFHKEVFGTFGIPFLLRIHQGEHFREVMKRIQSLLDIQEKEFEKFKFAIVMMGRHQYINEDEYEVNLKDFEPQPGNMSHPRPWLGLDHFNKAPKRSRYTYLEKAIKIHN
UniProt P42224: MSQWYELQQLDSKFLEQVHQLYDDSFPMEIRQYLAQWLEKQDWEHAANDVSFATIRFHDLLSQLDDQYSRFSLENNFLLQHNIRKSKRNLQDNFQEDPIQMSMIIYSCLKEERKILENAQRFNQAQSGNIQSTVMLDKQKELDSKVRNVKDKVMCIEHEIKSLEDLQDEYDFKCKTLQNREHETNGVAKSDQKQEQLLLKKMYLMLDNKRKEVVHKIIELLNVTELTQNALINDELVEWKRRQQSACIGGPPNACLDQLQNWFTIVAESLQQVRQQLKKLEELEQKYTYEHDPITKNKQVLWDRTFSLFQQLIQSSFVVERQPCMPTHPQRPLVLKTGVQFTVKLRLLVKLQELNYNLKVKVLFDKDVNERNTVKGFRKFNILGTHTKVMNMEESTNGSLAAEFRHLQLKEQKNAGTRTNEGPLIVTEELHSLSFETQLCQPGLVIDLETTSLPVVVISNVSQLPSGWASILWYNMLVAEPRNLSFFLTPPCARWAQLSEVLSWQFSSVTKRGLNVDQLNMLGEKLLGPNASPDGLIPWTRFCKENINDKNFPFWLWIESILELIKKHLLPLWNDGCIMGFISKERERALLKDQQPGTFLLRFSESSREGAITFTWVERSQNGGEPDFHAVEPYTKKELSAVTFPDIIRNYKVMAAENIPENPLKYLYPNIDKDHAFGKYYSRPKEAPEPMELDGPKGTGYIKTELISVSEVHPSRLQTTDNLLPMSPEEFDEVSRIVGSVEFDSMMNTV
UniProt P52630: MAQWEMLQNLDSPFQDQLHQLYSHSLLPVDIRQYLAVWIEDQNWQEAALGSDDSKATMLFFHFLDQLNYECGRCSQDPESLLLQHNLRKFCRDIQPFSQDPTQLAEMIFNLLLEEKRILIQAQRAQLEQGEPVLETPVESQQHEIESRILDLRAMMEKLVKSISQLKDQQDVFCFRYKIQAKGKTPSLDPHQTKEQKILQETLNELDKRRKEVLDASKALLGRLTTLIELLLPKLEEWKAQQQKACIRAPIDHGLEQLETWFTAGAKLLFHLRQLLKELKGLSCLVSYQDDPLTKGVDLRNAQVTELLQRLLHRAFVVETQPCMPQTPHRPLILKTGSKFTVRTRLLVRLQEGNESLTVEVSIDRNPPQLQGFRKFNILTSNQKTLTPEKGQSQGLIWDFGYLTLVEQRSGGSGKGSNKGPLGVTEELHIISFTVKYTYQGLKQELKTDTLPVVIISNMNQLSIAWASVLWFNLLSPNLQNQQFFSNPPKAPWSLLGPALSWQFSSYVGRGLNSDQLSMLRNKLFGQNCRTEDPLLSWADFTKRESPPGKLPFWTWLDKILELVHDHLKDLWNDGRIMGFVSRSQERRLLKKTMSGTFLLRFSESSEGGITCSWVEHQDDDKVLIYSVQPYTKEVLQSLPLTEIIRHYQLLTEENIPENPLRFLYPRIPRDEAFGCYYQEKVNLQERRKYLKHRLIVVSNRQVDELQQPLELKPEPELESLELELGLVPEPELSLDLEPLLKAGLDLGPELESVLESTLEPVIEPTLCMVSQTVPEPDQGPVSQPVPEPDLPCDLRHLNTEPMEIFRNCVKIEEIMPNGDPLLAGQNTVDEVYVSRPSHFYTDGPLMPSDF
UniProt P40189, residues 23-918: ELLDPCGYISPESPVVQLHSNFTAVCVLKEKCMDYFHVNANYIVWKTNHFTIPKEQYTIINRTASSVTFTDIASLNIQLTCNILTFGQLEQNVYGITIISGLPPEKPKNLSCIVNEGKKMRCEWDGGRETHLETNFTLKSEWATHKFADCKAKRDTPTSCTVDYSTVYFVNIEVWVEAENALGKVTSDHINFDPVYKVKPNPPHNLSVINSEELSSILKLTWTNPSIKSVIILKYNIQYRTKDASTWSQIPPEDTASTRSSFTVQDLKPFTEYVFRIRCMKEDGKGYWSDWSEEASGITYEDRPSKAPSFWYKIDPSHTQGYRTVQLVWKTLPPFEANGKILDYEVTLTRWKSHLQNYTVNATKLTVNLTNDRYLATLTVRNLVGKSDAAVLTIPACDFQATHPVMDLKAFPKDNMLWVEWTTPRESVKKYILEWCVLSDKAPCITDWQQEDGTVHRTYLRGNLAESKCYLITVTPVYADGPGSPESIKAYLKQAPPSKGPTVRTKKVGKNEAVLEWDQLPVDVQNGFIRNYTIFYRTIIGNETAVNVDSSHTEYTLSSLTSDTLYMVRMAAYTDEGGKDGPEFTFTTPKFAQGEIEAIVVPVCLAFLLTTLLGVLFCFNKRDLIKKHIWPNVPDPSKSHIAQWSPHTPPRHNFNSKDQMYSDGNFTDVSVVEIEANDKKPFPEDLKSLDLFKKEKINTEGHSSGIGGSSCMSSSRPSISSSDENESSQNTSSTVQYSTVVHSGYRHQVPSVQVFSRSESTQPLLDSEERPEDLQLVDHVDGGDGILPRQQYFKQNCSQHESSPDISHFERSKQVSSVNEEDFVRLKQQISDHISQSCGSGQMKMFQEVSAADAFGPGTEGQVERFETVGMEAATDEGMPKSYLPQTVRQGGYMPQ

Experiments:
[1] = target: Flag-tagged vIRF-1 deletion variant Δ2 (deleted of residues 23-47) (human herpesvirus 8 (HHV-8)) (UniProt F5HF68); assay: co-IP
[2] = target: Flag-tagged vIRF-1 deletion variant Δ3 (deleted of residues 48-72) (human herpesvirus 8 (HHV-8)) (UniProt F5HF68); assay: co-IP
[3] = target: StrepII+Flag (SF)-tagged vIRF-1 (HHV-8 viral interferon regulatory factor 1), wild type (human herpesvirus 8 (HHV-8)) (UniProt F5HF68); assay: co-IP
[4] = target: GST-tagged vIRF-1, bacterially derived (human herpesvirus 8 (HHV-8)) (UniProt F5HF68); assay: pull-down; both purified
CBD-tagged TYK2 = CBD-tagged TYK2 (UniProt P29597); assay: co-IP
[5] = target: TYK2 of the preliminary coprecipitation-based screening (UniProt P29597); assay: co-IP
[6] = target: CBD (chitin-binding domain)-tagged STAT3 (UniProt P40763); assay: co-IP
USP7 = USP7 (UniProt Q93009); assay: co-IP
[7] = target: Flag-tagged vIRF-1 deletion variant Δ9 (Δ198–222) (human herpesvirus 8 (HHV-8)) (UniProt F5HF68); assay: co-IP
[8] = target: virus-expressed vIRF-1 of TRExBCBL1-RTA (iBCBL-1) PEL cells (human herpesvirus 8 (HHV-8)) (UniProt F5HF68); assay: co-IP
[9] = target: S-tagged TYK2, vector-expressed (UniProt P29597); assay: co-IP
[10] = target: CBD (chitin-binding domain)-tagged STAT3 (UniProt P40763); assay: co-IP; remark: listed apart in the source

| Molecule | binding [1] | binding [2] | binding [3] | other results |
| --- | --- | --- | --- | --- |
| CBD-tagged STAT1, vector-expressed (from UniProt P42224 1-750) | binds | binds | binds |  |
| Flag-tagged TYK2, bacterially produced and purified (from UniProt P29597 1-1187) (enzyme) |  |  |  | binding [4]: binds |
| Flag-tagged vIRF-1 deletion variant Δ9 (Δ198–222) (from UniProt F5HF68 1-449) |  |  |  | binding (CBD-tagged TYK2): no binding; binding [5]: no binding |
| Flag-tagged vIRF-1 residues 1–72 (peptide 1–72) (from UniProt F5HF68 1-72) (domain or fragment) |  |  |  | binding [6]: binds; binding (USP7): binds |
| S-tagged TYK2, vector-expressed (from UniProt P29597 1-1187) (enzyme) | binds | binds | binds | binding [7]: no binding |
| StrepII+Flag (SF)-tagged vIRF-1 (HHV-8 viral interferon regulatory factor 1), wild type (from UniProt F5HF68 1-449) |  |  |  | binding [6]: binds; binding (CBD-tagged TYK2): binds; binding (USP7): binds |
| endogenous STAT2 of 293T cells (from UniProt P52630 1-851) | binds | binds | binds |  |
| endogenous STAT3 (total STAT3) of 293T cells (from UniProt P40763 1-770) | no binding | no binding | binds | binding [7]: binds |
| endogenous STAT3 of TRExBCBL1-RTA (iBCBL-1) PEL cells (from UniProt P40763 1-770) |  |  |  | binding [8]: binds |
| endogenous active, tyrosine-phosphorylated STAT3 (pSTAT3) of 293T cells (from UniProt P40763 1-770) |  |  | binds |  |
| gp130 cytokine receptor (signal transducer) in 293T lysates (from UniProt P40189 23-918) |  |  |  | binding [9]: binds |
| B1 |  |  |  | binding [10]: no binding |
